PubChem BioAssay (NCATS)
Inconclusive results, whose numbers are uncertain, are shown with a selection of clear calls. For some of these results: No potency is given beside an inconclusive call; the fits are too rough. The source made the active and inactive calls. Unless noted, calls follow the shape of the dose curve; as a rule, active = well fitted curve in the direction sought with a large enough effect; inconclusive = small, poorly fitted or top-dose-only effect, or another doubt; inactive = no such curve, though single readings can be large; an effect the other way counts as inactive or inconclusive.

Legend:
[1] = test system: Zika virus NS2B-NS3 protease (linked construct); test: Primary screen NINDS Rhodamine qHTS for Zika virus inhibitors (AID 1347160); conditions: purified NS2B-NS3 protease, Rhodamine110 substrate fluorescence; series mostly up to 112 µM
Summary of the method: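 Purified NS2B-NS3 protease with the NS2B hydrophilic domain joined by a flexible linker (25 nM) in 10 mM Tris-HCl pH 8.0, 0.01% Tween 20, preincubated 15 min at RT with compound; Rhodamine110 peptide substrate 1.5 µM; fluorescence change over 15 min; 4-parameter Hill fit.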

[2] = OV-KATE Cancer Cell Toxicity qHTS against the NCATS CANVASS Library (AID 1347345); conditions: OV-KATE cells viability, CellTiter-Glo luminescence, 72 h; series mostly up to 38.3 µM
Summary of the method: (§1)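 ATP content after 72 h treatment, detected by CellTiter-Glo luminescence (15min room-temperature development), reflects cell viability. Wells contained 1000 cells and received compounds at 11 concentrations.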

[3] = UWB1.289 Cancer Cell Toxicity qHTS against the NCATS CANVASS Library (AID 1347347); conditions: UWB1.289 viability, CellTiter-Glo luminescence, 72 h; series mostly up to 38.3 µM
Summary of the method: as §1

[4] = OV-SAHO Cancer Cell Toxicity qHTS against the NCATS CANVASS Library (AID 1347348); conditions: OV-SAHO viability, CellTiter-Glo luminescence, 72 h; series mostly up to 38.3 µM
Summary of the method: as §1

[5] = Panc-1005 Cancer Cell Toxicity qHTS against the NCATS CANVASS Library (AID 1347349); conditions: Panc-1005 viability, CellTiter-Glo luminescence, 72 h; series mostly up to 38.3 µM
Summary of the method: as §1

[6] = COV-362 Cancer Cell Toxicity qHTS against the NCATS CANVASS Library (AID 1347352); conditions: COV-362 viability, CellTiter-Glo luminescence, 72 h; series mostly up to 38.3 µM
Summary of the method: (§2)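 Luminescent ATP read-out (CellTiter-Glo, 15min at room temperature) measures survival after cells face an 11-point compound series for 72 hours at 37 degrees C/5% CO2.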

[7] = A2780 Cisplatin Sensitive Ovarian Cancer Cell Toxicity qHTS against the NCATS CANVASS Library (AID 1347353); conditions: A2780 ovarian cancer viability, ATPLite luminescence, 72 h; series mostly up to 46.1 µM
Summary of the method: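 Luminescent ATP content (ATPLite, 10 min at room temperature) served as the read-out after cells had been exposed to compounds for 72 hours at 37 °C. Dosing followed an 11-point concentration series.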

[8] = UWB1.289-WTBRCA1 Cancer Cell Toxicity qHTS against the NCATS CANVASS Library (AID 1347354); conditions: UWB1.289-WTBRCA1 viability, CellTiter-Glo luminescence, 72 h; series mostly up to 38.3 µM
Summary of the method: as §2

[9] = KB-3-1 Cancer Cell Toxicity qHTS against the NCATS CANVASS Library (AID 1347366); conditions: KB-3-1 viability, CellTiter-Glo luminescence, 72 h; series mostly up to 46.1 µM
Summary of the method: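 KB-3-1 cells (500/well) in DMEM with 10% FBS were exposed to compounds for 72 h at 37C. Viability was read by CellTiter-Glo luminescence.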

[10] = G06 Cancer Cell Toxicity qHTS against the NCATS CANVASS Library (AID 1347368); conditions: G06 dog glioma cells, viability ATP luminescence, 72 h; series mostly up to 46.1 µM
Summary of the method: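 Dog G06 glioma line, 500 cells/well; cpds pin-transferred, 11-pt; 72 hr, 37C/5% CO2; CellTiterGlo luminescence (ATP) endpoint.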

[11] = MCF7 Cancer Cell Toxicity qHTS against the NCATS CANVASS Library (AID 1347369); conditions: MCF7 viability, ATP luminescence (CellTiter-Glo), 72 h; series mostly up to 46 µM
Summary of the method: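 MCF7 cells (500/well) were exposed 72 h at 37 °C to compounds in an 11-point series. Viability was read as ATP content by CellTiterGlo luminescence.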

[12] = qHTS for Hypoxia signaling pathway (HIF-1) antagonists against the NCATS CANVASS Library (AID 1347374); conditions: HRE-bla ME-180 cells, HIF-1 beta-lactamase reporter, CoCl2; series mostly up to 38.3 µM
Summary of the method: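 HRE-bla ME-180 cells in medium with 0.5% dialyzed FBS received compounds (11-point series) plus CoCl2 (60 uM addition stock) for 17 hrs at 37C. Beta-lactamase activity read with CCF4 (405 nm ex, 460/530 nm em); CellTiter-Glo viability measured in same wells.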

[13] = Cytotoxicity qHTS for assessment of Hepg2 cells membrane integrity screened against the NCATS CANVASS Library (AID 1347387); conditions: HepG2 LDH release (CytoTox-ONE) fluorescence, 5 h; series mostly up to 46.1 µM
Summary of the method: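 qHTS, 11-pt conc. series, 0.59 nM - 46 uM final; HepG2 2000 cells/well, overnight attachment; 5 hr compound exposure 37C/5% CO2; CytoTox-ONE, 10 min RT; fluorescence ex560/em590 = LDH from damaged membranes.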

[14] = qHTS assay for small molecule disruptors of mitochondrial membrane potential screened against the NCATS CANVASS Library (AID 1347389); conditions: HepG2 mitochondrial membrane potential, m-MPI red/green ratio, 1.5 h; series mostly up to 46.1 µM
Summary of the method: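 HepG2, 2,000 cells/well, attached overnight; compound 1 hr, 37C, 5% CO2; Mito-MPS dye 30 min, 37C; fluorescence 535 nm (monomer) and 590 nm (aggregate); decreased 590/535 ratio = depolarization.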

[15] = Vero-766 cells viability qHTS against the NCATS CANVASS Library: Counterscreen for Zika virus inhibition assay (AID 1347394); conditions: Vero 766 viability, CellTiter-Glo luminescence, 72 h; series mostly up to 46.1 µM
Summary of the method: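 Vero 766 cells (1000/well), without Zika virus, were exposed to compounds for 72 h at 37C. Viability was measured by CellTiter Glo luminescence. Media-only wells served as 100% inhibition.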

[16] = qHTS for inhibitors of Wild type Zika virus screened against the NCATS CANVASS Library (AID 1347396); conditions: Vero cells, Zika virus CPE, CellTiter-Glo, 72 h; series mostly up to 45.9 µM
Summary of the method: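 Vero 766 (African green monkey) cells, 1000 per well, attached overnight, then compounds were added in an 11-point series before wild-type Zika virus infection. After 72 h at 37C, cell viability was read as CellTiter Glo luminescence.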

[17] = qHTS for inhibitors of Rabies Virus screened against the NCATS CANVASS Library (AID 1347402; calls by dose curve); conditions: Rabies virus infection cell assay; series mostly up to 45.9 µM
[18] = Secretion counterscreen for inhibitors of the SERCaMP assay screened against the NCATS CANVASS Library (AID 1347390); conditions: SH-SY5Y constitutive GLuc secretion, luminescence, 20 h; series mostly up to 76.6 µM
Summary of the method: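 SH-SY5Y cells with constitutively secreted GLuc reporter, 1000 cells/well, treated 20 h at 37C with compounds at 0.001 - 77 uM final; secreted luciferase read as luminescence after coelenterazine; Brefeldin A as positive control.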

[19] = qHTS for inhibitors of ER calcium dysfunction: SERCaMP assay screened against the NCATS CANVASS Library (AID 1347393); conditions: SH-SY5Y GLuc-SERCaMP (Gaussia luciferase released on ER calcium loss) secretion, thapsigargin, luminescence; series mostly up to 76.6 µM
Summary of the method: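 qHTS in SH-SY5Y reporter cells: 16 h compound pretreatment, 4 h thapsigargin, then secreted Gaussia luciferase measured by luminescence.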

[20] = U-118MG Cancer Cell Toxicity qHTS against the NCATS CANVASS Library (AID 1347351); conditions: U-118MG viability, CellTiter-Glo luminescence, 72 h; series mostly up to 38.3 µM
Summary of the method: as §1

[21] = HPAF-II 18hr Apoptosis Induction qHTS against the NCATS CANVASS Library (AID 1347360); conditions: HPAF-II caspase-3/7 luminescence; series mostly up to 46.1 µM
Summary of the method: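 HPAF-II cells at 500/well were exposed for 18 h at 37 C to an 11-point compound series. Caspase-3/7 activity was read by Caspase-Glo luminescence after 15 min at RT.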

[22] = qHTS for Antimalaria activity screened against the NCATS CANVASS Library (AID 1347380); conditions: P. falciparum Dd2 growth, SYBR Green fluorescence, 72 h; series mostly up to 28.7 µM
Summary of the method: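 Dd2 strain, infected erythrocytes 2.5% Hct final / 0.3% parasitemia. 11-pt qHTS titration, 72 h, 37C, 5% O2, 5% CO2. Lysis buffer + SYBR Green, 18 h, fluorescence 485/535 nm.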

SMILES: C[C@]12CCC3[C@@H](CC[C@@H]4C[C@@H](O)CC[C@]34CO)[C@@]1(O)CC[C@@H]2C1=CC(=O)OC1 (some centres not stated)
- Potency [1]: inconclusive [inhibitor, single point]
- Potency [2]: inconclusive [cytotoxic, full curve]
- Potency [3]: active: 1180 nM
- Potency [4]: active: 2360 nM
- Potency [5]: inconclusive [cytotoxic, full curve]
- Potency [6]: active: 1880 nM
- Potency [7]: active: 2960 nM
- Potency [8]: inconclusive [cytotoxic, full curve]
- Potency [9]: active: 1320 nM
- Potency [10]: active: 1870 nM
- Potency [11]: active: 1170 nM
- Potency [12]: active: 941 nM
- Potency [13]: inactive
- Potency [14]: inconclusive [inhibitor, single point]
- Potency [15]: active: 11700 nM
- Potency [16]: inactive
- Potency [17]: inconclusive [inhibitor, full curve, poor fit]

SMILES: C/C=C1/CN2CC[C@@]34c5ccccc5N(C)[C@@H]3[C@@H]2C[C@@H]1[C@H]4C(=O)OC
- Potency [1]: inconclusive [inhibitor, partial curve]
- Potency [3]: inconclusive [cytotoxic, partial curve]
- Potency [5]: inconclusive [cytotoxic, partial curve]
- Potency [7]: inactive
- Potency [8]: inactive
- Potency [9]: inactive
- Potency [11]: inconclusive [cytotoxic, partial curve, poor fit]
- Potency [18]: inactive
- Potency [19]: active: 860 nM
- Potency [17]: inactive

SMILES: O[C@H]1C=C[C@@]23CCN(Cc4cc5c(cc42)OCO5)[C@@H]3C1
- Potency [1]: inconclusive [inhibitor, partial curve, poor fit]
- Potency [3]: active: 11800 nM
- Potency [5]: inactive
- Potency [20]: inactive
- Potency [8]: inconclusive [cytotoxic, partial curve, poor fit]
- Potency [21]: inactive
- Potency [10]: inactive
- Potency [22]: inconclusive [cytotoxic, full curve]
- Potency [19]: inactive
- Potency [17]: inactive
